The record followed here is publication PMC6463675, “Panax ginseng Inhibits Metabolism of Diester Alkaloids by Downregulating CYP3A4 Enzyme Activity via the Pregnane X Receptor” (Evidence-based Complementary and Alternative Medicine : eCAM, 2019).

Substrate in this data set: [H][C@]12C[C@]3(O)[C@@H](OC)[C@H](O)[C@](OC(C)=O)(C4C5N(C)C[C@]6(COC)CC[C@H](OC)[C@@]51[C@]6([H])[C@H]4OC)[C@@]2([H])[C@H]3OC(=O)c1ccccc1
In words: Kinetic analysis in recombinant human CYP3A4. The following applies: 37.0 °C. In kind it is in vitro ADME.

B1: recombinant human CYP3A4 (Homo sapiens) (protein)
chain: ALIPDLAMETWLLLAVSLVLLYLYGTHSHGLFKKLGIPGPTPLPFLGNILSYHKGFCMFDMECHKKYGKVWGFYDGQQPVLAITDPDMIKTVLVKECYSVFTNRRPFGPVGFMKSAISIAEDEEWKRLRSLLSPTFTSGKLKEMVPIIAQYGDVLVRNLRREAETGKPVTLKDVFGAYSMDVITSTSFGVNIDSLNNPQDPFVENTKKLLRFDFLDPFFLSITVFPFLIPILEVLNICVFPREVTNFLRKSVKRMKESRLEDTQKHRVDFLQLMIDSQNSKETESHKALSDLELVAQSIIFIFAGYETTSSVLSFIMYELATHPDVQQKLQEEIDAVLPNKAPPTYDTVLQMEYLDMVVNETLRLFPIAMRLERVCKKDVEINGMFIPKGVVVMIPSYALHRDPKYWTEPEKFLPERFSKKNKDNIDPYIYTPFGSGPRNCIGMRFALMNMKLALIRVLQNFSFKPCKETQIPLKLSLGGLLQPEKPVVLKVESRDGTVSGA
notes: purchased Corning 456202; host or cells: baculovirus infected insect cells (BTI-TN-5B1-4)
For orientation: Km means the concentration of substrate that gives half-maximal velocity. Regarding B1, the Km was 17.05 ± 9.70 µM and the Vmax is reported as 0.16 ± 0.04 nmol·mg protein^−1·min^−1.
